Laboratory results taken from the supplement of paper PMC5499739.
Over roughly 16,000 sequences, “Z-score” has its median near -0.37; the highest 2% begin near 3.2. Some of the results follow.

These sequences were tested on RBM10 RRM1-ZnF (GST-tagged construct) (assay: RNAcompete 7-mer binding Z-score; higher = stronger binding preference).
Outline: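 GST-tagged RBM10 constructs (20 pmol) were mixed with a designed pool of 241 399 RNAs up to 41 nt (1.5 nmol), transcribed from microarray-derived DNA templates. Mixing was in 1 ml Hepes pH 7.8 buffer with KCl, NaCl, glycerol, DTT, BSA and glutathione Sepharose beads. Binding ran 30 min at 4°C, followed by four 2-min washes at 4°C, and bound RNA was identified by microarray hybridisation. Each heptamer motif received a one-sided Z-score for enrichment across probes containing it.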

Sequence	RNAcompete 7-mer binding Z-score
GGAGGUU	2.51
GCCCUUA	-0.685
GUAUCAG	-0.0512
UAAUAAG	0.0365
UUCUCUA	-0.837
GUAAUAG	0.449
UUGGAAU	0.699
UCACGGA	0.144
UAUUAUC	-0.613
UAAGUCC	-0.701
UUCUACC	-0.818
CGCGCGU	-0.249
CUUAUUG	-0.785
UGUGACU	-0.217
UUGUAGU	-0.227
UGCUAUA	-0.438
UAUUUAU	-0.506
UCCACGC	-0.655
GCAGUUG	0.384
AGCUAAA	-0.0772
GAAACGU	-0.00246
CCCGUUG	-0.565
GCUAAUU	-0.688

Sequence	RNAcompete 7-mer binding Z-score
CAACUCC	-0.626
GGAAAUG	3.11
CUGGUAC	-0.386
UUUUGAU	-0.629
UGAGACC	-0.353
AAGAAAC	-0.0122
AGUGUCU	-0.402
AAUGAAG	0.332
UAAGAUG	0.43
CGGCAAA	0.157
CGAUGUG	0.267
ACCGCCA	-0.461
UGGCUCU	-0.405
GGCCCCU	-0.451
GCUGUUG	-0.191
CUAUACG	-0.62
GCUUCUA	-0.756
UGCCACC	-0.532
UCCGGAA	-0.347
GAUGGGC	2.15
CUUCGAC	-0.72
AAUGCAU	-0.61
UAGUCGU	-0.223

Sequence	RNAcompete 7-mer binding Z-score
GCAGAGC	0.342
UAGAACU	-0.155
GAGUGGC	1.53
GUCGGAA	0.8
GAUCGUG	0.153
CUUUUAC	-0.87
UGGCUAU	-0.0804
CUGGCAA	-0.477
CAUCUGU	-0.893
UCUCUUG	-0.714
GACUAGA	-0.0285
CGAGACA	-0.327
GCCACUU	-0.863
CUGCCUA	-0.659
GCGCUCU	-0.636
UCUUACA	-0.733
CUGGGAA	1.47
CAGGCGG	1.47
CCCUAUG	-0.779
UAUUCCC	-0.779
AUCCAUA	-0.912
ACACUUG	-0.535
UGGGAUA	3.05

Sequence	RNAcompete 7-mer binding Z-score
ACCGAAU	-0.668
CCGCUGA	-0.584
AAGUAGG	2.37
AACGCAG	-0.0512
AAAAUAU	-0.324
CCGCACG	-0.522
UGUACUU	-0.737
UUGCAAG	-0.197
UCCAGCG	-0.412
UAAGAUU	-0.448
UUUUAGG	0.111
CCGGAAU	-0.227
AAGCCUC	-0.74
CGUGUCU	-0.581
UCUUGAU	-0.857
AUCUAUG	-0.418
ACCAUAA	-0.73
ACGCUCG	-0.636
GGCGAUA	0.472
UAGACUG	-0.103
UCUGCAC	-0.503
CGAGGUG	2
ACCGGAG	0.677

Sequence	RNAcompete 7-mer binding Z-score
ACGAACG	-0.181
AAUAGGA	1.56
GCCCGCU	-0.441
CAACUAA	-0.561
AUAUGGG	2.89
UUGGACC	0.0268
UGCGCUA	-0.47
AACGGUU	1.1
UUACGCG	-0.331
CCUUGAG	-0.72
GAAUUUU	-0.642
AUGACUC	-0.548
GGCUUCU	-0.581
UCGAAGU	-0.103
AAAGAAG	0.813
AGUGACG	1
AACCCUU	-0.958
GCAAAGG	1.81
ACGCGGC	-0.171
GCGCCGU	-0.249
CGCAUAG	-0.262
UAAUAGC	-0.655
UUAUAAA	-0.467

Sequence	RNAcompete 7-mer binding Z-score
GUAAUUC	-0.373
ACGUAAG	0.03
CAGCAAA	-0.279
CUACAGU	-0.798
GAUCUAG	-0.48
UGACCGA	-0.441
CAGAUAU	-0.584
CAUGUCG	-0.487
ACUUUAC	-0.902
GCUUGGG	1.89
CAACACU	-0.526
CAUGGAA	1.1
UUCGGGC	0.0918
GAGCCAU	-0.477
UCGAAUG	-0.431
UAUUGAA	-0.392
GACCUUA	-0.993
CUGGUGA	0.787
AGAAUUU	-0.506
GAUUUAG	0.43
GUGCUUC	-0.454
GUCAGCU	-0.425
CGGUGCU	0.485

Sequence	RNAcompete 7-mer binding Z-score
AUCUUGC	-0.935
GGUGGCA	2.02
UGAAGCG	0.608
AGGGACG	2.13
CCGAGUU	-0.841
AUAUCUU	-0.629
UAGGAGU	2.44
GGGCAUA	1.66
AGCGAUU	-0.269
GUCCCCA	-0.269
UAUCUCA	-0.61
UAGAUGU	0.241
GCUGCUC	-0.415
GUACUCA	-0.542
GAUUGAG	1.33
ACUGGUG	1.29
CCGACGA	-0.464
UCGUUCG	-0.581
CCACAAC	-0.535
UGAGCGC	-0.132
AUAAAUC	-0.659
CAUUUUC	-0.938
AACCGCU	-0.824

Sequence	RNAcompete 7-mer binding Z-score
UAGCGGA	1.13
UGGUAAU	0.914
AGUUGAC	0.115
UGGGUUU	2.64
UUGGUUC	-0.344
ACCCCGA	-0.158
CUCAGUC	-0.824
GGGAUUC	1.12
UCGAGGC	0.0755
GGCUACA	-0.103
AUCAUGU	-0.366
UAAACGG	0.677
UUCUUAA	-0.724
CGUCCGA	-0.707
GAGUUAG	1.02
CACCAUU	-0.86
GGGGUGG	4.71
UUUACUC	-0.743
UCGCUGA	-0.448
ACGUGCA	-0.035
AUGGUCG	0.92
UAUUGCC	-0.795
UAGACCG	-0.188
